{
  "source": "the supplement of paper PMC10338343",
  "note": "± gives the standard deviation. The entries are a selection whose mix differs from that of the whole data set.",
  "data": [
    {"test_system": "MIWI (PIWIL1) piRISC loaded with L1MC piRNA (30 nt)", "experiment": "pre-steady-state target cleavage rate (min^-1); MIWI and MILI are mouse PIWI proteins and EfPiwi is from a freshwater sponge; tags in brackets are library labels; higher = faster piRNA-guided slicing of the target", "details": "guide: L1MC piRNA 5'p-UAACUAAAUACUAUGCAAGCUGUAGGUCCU; auxiliary factor: none (no GTSF1)", "method_in_brief": "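With or without 500 nM GTSF1 partner protein, 1 nM active affinity-purified piRISC carrying one synthetic guide was mixed with 0.1 nM transcribed, DNA-blocked target RNA library in HEPES–potassium acetate buffer at 33 °C for 0–8 or 0–960 min. Uncleaved targets were sequenced and normalised to depth and to weakly complementary targets, three trials were pooled, and k3 was capped at 0.0001 min^-1. The pre-steady-state cleavage rate came from a burst-and-steady-state fit.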", "values": [
      {"sequence": "UCCUGGAUGUCGAACGUUAGUAUUUGUUA", "pre-steady-state target cleavage rate": "< 0.0001"},
      {"sequence": "UCCUGGAUGUCGAUGCAUAGUUUUUACUUA", "pre-steady-state target cleavage rate": "< 0.0001"},
      {"sequence": "UCGACCUACGCUUGCAUAGUAUUUAGUUA", "pre-steady-state target cleavage rate": "0.0463 ± 0.0093"}
    ]}
  ]
}
